From the supplement of paper PMC4967469

What was measured:
Experiment in all cases: Viability of human cancer cell lines after 72 h of drug (GDSC screen)
VNLG/124 = compound: CCCC(=O)OCc1ccc(OC(=O)/C=C(C)/C=C/C=C(C)/C=C/C2=C(C)CCCC2(C)C)cc1 [VNLG/124]; conditions: top dose 5.12 µM; top dose inferred
Method: (§1)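 Human cancer cell lines in 384-well plates, medium with 10% serum, drug for 72 h over a 256-fold dose range (nine 2-fold or five 4-fold steps up to the top dose). Adherent lines were fixed and stained with the nucleic acid dye Syto60, suspension lines read with resazurin; signal relative to control wells, capped at 0 and 100%. One two-parameter sigmoid per drug and line, fitted in a mixed model over all curves with the slope shared within a line.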

Elesclomol = compound: CN(NC(=O)CC(=O)NN(C)C(=S)c1ccccc1)C(=S)c1ccccc1 [Elesclomol]; conditions: top dose 0.2 µM; top dose inferred
Method: as §1

HG-5-88-01 = compound: COc1cc(N2CCC(C(N)=O)CC2)ccc1Nc1nc(N)c(Cl)c(Nc2ccccc2S(=O)(=O)C(C)C)n1 [HG-5-88-01]; conditions: top dose 10 µM; top dose inferred
Method: as §1

Bleomycin = compound: Cc1c(N)nc([C@H](CC(N)=O)NC[C@H](N)C(N)=O)nc1C(=O)N[C@H](C(=O)N[C@H](C)[C@@H](O)[C@H](C)C(=O)N[C@H](C(=O)NCCc1nc(-c2nc(C(=O)NCCC[S+](C)C)cs2)cs1)[C@@H](C)O)[C@@H](OC1OC(CO)C(O)C(O)C1OC1OC(CO)C(O)C(OC(N)=O)C1O)c1cnc[nH]1 [Bleomycin]
Method: as §1

Masitinib = compound: Cc1ccc(NC(=O)c2ccc(CN3CCN(C)CC3)cc2)cc1Nc1nc(-c2cccnc2)cs1 [Masitinib]; conditions: top dose 20 µM
Method: as §1

LAQ824 = compound: O=C(/C=C/c1ccc(CN(CCO)CCc2c[nH]c3ccccc23)cc1)NO [LAQ824]; conditions: top dose 1.024 µM; top dose inferred
Method: as §1

OSI-930 = compound: O=C(Nc1ccc(OC(F)(F)F)cc1)c1sccc1NCc1ccnc2ccccc12 [OSI-930]; conditions: top dose 10.24 µM
Method: as §1

BX-912 = compound: O=C(Nc1cccc(Nc2ncc(Br)c(NCCc3cnc[nH]3)n2)c1)N1CCCC1 [BX-912]; conditions: top dose 10.24 µM; top dose inferred
Method: as §1

NSC-87877 = compound: O=S(=O)(O)c1ccc2cc(N=Nc3cc(S(=O)(=O)O)c4cccnc4c3O)ccc2c1 [NSC-87877]; conditions: top dose 16 µM; top dose inferred
Method: as §1

Tamoxifen = compound: CC/C(=C(\c1ccccc1)c1ccc(OCCN(C)C)cc1)c1ccccc1 [Tamoxifen]; conditions: top dose 5 µM
Method: as §1

[1] = top dose 50 µM, screen: GDSC drug entry 1378, top dose inferred
[2] = top dose 64 µM, screen: GDSC drug entry 190

Cell Line | AUC (VNLG/124) | IC50 (VNLG/124) [µM] | AUC (Elesclomol) | IC50 (Elesclomol) [µM] | AUC (HG-5-88-01) | IC50 (HG-5-88-01) [µM] | AUC (Bleomycin; [1]) | IC50 (Bleomycin; [1]) [µM] | AUC (Bleomycin; [2]) | IC50 (Bleomycin; [2]) [µM] | AUC (Masitinib) | IC50 (Masitinib) [µM] | AUC (LAQ824) | IC50 (LAQ824) [µM] | AUC (OSI-930) | IC50 (OSI-930) [µM] | AUC (BX-912) | IC50 (BX-912) [µM] | AUC (NSC-87877) | IC50 (NSC-87877) [µM] | AUC (Tamoxifen) | IC50 (Tamoxifen) [µM]
HEC-1 (endometrium, adherent) | 0.989 | > 5.12 | 0.461 | 0.00983 | 0.923 | > 10 | 0.7 | 11.1 | 0.786 | 26.6 | 0.98 | > 20 | 0.45 | 0.0469 | 0.979 | > 10.2 | 0.988 | > 10.2 | 0.989 | > 16 |  | 
MDA-MB-468 (breast, adherent) | 0.979 | > 5.12 | 0.184 | 0.00148 | 0.978 | > 10 | 0.539 | 3.97 | 0.835 | 39.8 | 0.886 | > 20 | 0.665 | 0.18 | 0.914 | > 10.2 | 0.586 | 1.09 | 0.987 | > 16 |  | 
SKM-1 (haematopoietic neoplasm, suspension) |  |  |  |  | 0.741 | 3.32 | 0.795 | 25.9 |  |  |  |  |  |  |  |  |  |  |  |  | 0.946 | > 5
SK-N-SH (neuroblastoma, adherent) | 0.987 | > 5.12 | 0.444 | 0.00882 | 0.704 | 2.34 | 0.335 | 1.09 | 0.125 | 0.257 | 0.921 | > 20 | 0.286 | 0.016 | 0.983 | > 10.2 | 0.917 | > 10.2 | 0.987 | > 16 |  | 
HuH-7 (liver, adherent) | 0.987 | > 5.12 | 0.576 | 0.0202 | 0.83 | 6.26 | 0.442 | 2.17 | 0.455 | 3.02 | 0.951 | > 20 | 0.732 | 0.292 | 0.985 | > 10.2 | 0.86 | 8.55 | 0.987 | > 16 |  | 
JIMT-1 (breast, adherent) | 0.98 | > 5.12 | 0.542 | 0.0164 | 0.956 | > 10 | 0.765 | 19.7 | 0.371 | 1.72 | 0.976 | > 20 | 0.468 | 0.0519 | 0.937 | > 10.2 | 0.972 | > 10.2 | 0.974 | > 16 |  | 
A2058 (melanoma, adherent) | 0.985 | > 5.12 | 0.653 | 0.0316 | 0.949 | > 10 | 0.487 | 2.88 | 0.239 | 0.78 | 0.899 | > 20 | 0.52 | 0.0721 | 0.978 | > 10.2 | 0.811 | 4.74 | 0.99 | > 16 |  | 
BT-20 (breast, adherent) | 0.978 | > 5.12 | 0.662 | 0.0396 | 0.982 | > 10 | 0.695 | 12.7 | 0.419 | 2.27 | 0.928 | > 20 | 0.717 | 0.311 | 0.964 | > 10.2 | 0.964 | > 10.2 | 0.978 | > 16 |  | 
KYSE-140 (oesophagus, adherent) | 0.983 | > 5.12 | 0.504 | 0.0128 | 0.946 | > 10 | 0.646 | 8.38 | 0.52 | 4.56 | 0.887 | > 20 | 0.411 | 0.0353 | 0.967 | > 10.2 | 0.886 | > 10.2 | 0.923 | > 16 |  | 
HCC1937 (breast, adherent) | 0.985 | > 5.12 | 0.316 | 0.00351 | 0.958 | > 10 | 0.792 | 26.6 | 0.057 | < 0.25 | 0.899 | > 20 | 0.516 | 0.071 | 0.968 | > 10.2 | 0.932 | > 10.2 | 0.979 | > 16 |  | 
AGS (stomach, adherent) | 0.985 | > 5.12 | 0.062 | < 0.000781 | 0.929 | > 10 | 0.249 | 0.653 | 0.227 | 0.716 | 0.974 | > 20 | 0.317 | 0.0209 | 0.979 | > 10.2 | 0.964 | > 10.2 | 0.99 | > 16 |  | 
AU565 (breast, adherent) | 0.93 | > 5.12 | 0.498 | 0.0124 | 0.928 | > 10 | 0.931 | > 50 | 0.434 | 2.58 | 0.883 | > 20 | 0.323 | 0.0193 | 0.963 | > 10.2 | 0.973 | > 10.2 | 0.916 | > 16 |  | 
HT-29 (large intestine, adherent) | 0.975 | > 5.12 | 0.748 | 0.0641 | 0.77 | 3.81 | 0.921 | > 50 | 0.261 | 0.832 | 0.803 | 9.88 | 0.312 | 0.0191 | 0.979 | > 10.2 | 0.935 | > 10.2 | 0.967 | > 16 |  | 

Lines with a small IC50 respond at low doses; where the fit passes the top or lowest dose, that dose stands as a limit. The AUC spans the tested range (256-fold, ending at the top dose) of the same fit: 1 means no effect, lower means more sensitive. For part of these data: A top dose marked as inferred is not printed in the source and was worked back from the curve model. For part of these data: Drugs with an entry number were screened twice under separate entries, and the two screens often disagree.
